Hit rate of the full screen: of about 3,200 compounds, about 300 (9.4%) showed activity. This is a selection; strong and weak results do not stand in their true shares.
Tested on: A673/TR/shEF
Assay: cell viability (LOESS-normalised, relative to median of negative controls) (log2 ratio); higher = more viable cells (less compound effect), active = hit call of the paper (over 3 MAD below the median)
Settings: treatment time: 72 h
Outline: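 A673/TR/shEF Ewing sarcoma cells (1,500 per well, 384-well plates) were grown with or without doxycycline to induce EWS-FLI1 shRNA knockdown, starting 24 h before compounds. Library compounds at two or more concentrations, with DMSO controls, were added for three days. Cell viability was read by CellTiter-Glo luminescence on an Envision reader, then LOESS-corrected per plate, divided by the median of negative controls and log2-transformed. Hits were wells at least three median absolute deviations from the median of all screened wells.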

[1] = 0.25 µM, library screen: screen2, EWS-FLI1 expression: high (no doxycycline)
[2] = 0.25 µM, library screen: screen2, EWS-FLI1 expression: low (doxycycline-induced shRNA knockdown)
[3] = 2.5 µM, library screen: screen2, EWS-FLI1 expression: high (no doxycycline)
[4] = 2.5 µM, library screen: screen2, EWS-FLI1 expression: low (doxycycline-induced shRNA knockdown)
[5] = 0.25 µM, library screen: screen1, EWS-FLI1 expression: high (no doxycycline)
[6] = 0.25 µM, library screen: screen1, EWS-FLI1 expression: low (doxycycline-induced shRNA knockdown)
[7] = 2.5 µM, library screen: screen1, EWS-FLI1 expression: high (no doxycycline)
[8] = 2.5 µM, library screen: screen1, EWS-FLI1 expression: low (doxycycline-induced shRNA knockdown)
[9] = 0.103 µM, library screen: screen3, EWS-FLI1 expression: high (no doxycycline)
[10] = 0.103 µM, library screen: screen3, EWS-FLI1 expression: low (doxycycline-induced shRNA knockdown)
[11] = 0.308 µM, library screen: screen3, EWS-FLI1 expression: high (no doxycycline)
[12] = 0.308 µM, library screen: screen3, EWS-FLI1 expression: low (doxycycline-induced shRNA knockdown)
[13] = 0.926 µM, library screen: screen3, EWS-FLI1 expression: high (no doxycycline)
[14] = 0.926 µM, library screen: screen3, EWS-FLI1 expression: low (doxycycline-induced shRNA knockdown)
[15] = 2.8 µM, library screen: screen3, EWS-FLI1 expression: high (no doxycycline)
[16] = 2.8 µM, library screen: screen3, EWS-FLI1 expression: low (doxycycline-induced shRNA knockdown)
[17] = 8.3 µM, library screen: screen3, EWS-FLI1 expression: high (no doxycycline)
[18] = 8.3 µM, library screen: screen3, EWS-FLI1 expression: low (doxycycline-induced shRNA knockdown)
[19] = 25 µM, library screen: screen3, EWS-FLI1 expression: high (no doxycycline)
[20] = 25 µM, library screen: screen3, EWS-FLI1 expression: low (doxycycline-induced shRNA knockdown)

Measured: cell viability (log2)

NCCCC(N)(C(=O)O)C(F)F (stereo not drawn)
inactive: [1] 0.185 | [2] 0.0732 | [3] 0.14 | [4] 0.0555

COc1c2ccoc2cc2oc(=O)ccc12
inactive: [5] -0.00257 | [6] -0.0928 | [7] 0.0783 | [8] -0.0832

O=C1CCC(N2C(=O)c3ccccc3C2=O)C(=O)N1 (stereo not drawn)
inactive: [9] 0.0389 | [10] 0.0275 | [1] 0.166 | [2] 0.0988 | [11] -0.0491 | [12] 0.0452 | [13] -0.059 | [14] -0.0217 | [3] 0.0663 | [4] 0.0496 | [15] 0.0136 | [16] 0.0207 | [17] 0.0491 | [18] 0.0126 | [19] -0.00372 | [20] 0.107

COc1ccc(-c2nc3ccc(C4=NNC(=O)CC4C)cc3[nH]2)cc1 (stereo not drawn)
inactive: [9] -0.0122 | [10] 0.0487 | [11] -0.0245 | [12] -0.0302 | [13] -0.00296 | [14] -0.0241 | [15] 0.0147 | [16] -0.00868 | [17] -0.0247 | [18] 0.0168 | [19] -0.172 | [20] -0.00571

CCN(CC)CCNC(=O)COc1ccc(OC)cc1
inactive: [5] 0.00705 | [6] 0.0569 | [7] 0.0214 | [8] 0.0733

Cc1nc2n(c(=O)c1CCN1CCC(c3noc4cc(F)ccc34)CC1)CCCC2O (stereo not drawn)
inactive: [9] 0.129 | [10] 0.0142 | [11] 0.116 | [12] 0.0891 | [13] 0.0923 | [14] 0.124 | [15] 0.111 | [16] 0.0944 | [17] 0.108 | [18] 0.0895 | [19] 0.0176 | [20] 0.17

CC1(C)Oc2ccc3ccc(=O)oc3c2C[C@H]1O
inactive: [5] 0.0366 | [6] -0.00203 | [7] 0.0909 | [8] 0.0204

CC(=O)OCC1=C(C(=O)O)N2C(=O)[C@@H](NC(=O)Cc3cccs3)[C@H]2SC1
inactive: [5] 0.0834 | [6] 0.0392 | [1] 0.184 | [2] 0.0927 | [7] 0.127 | [8] 0.146 | [3] -0.0276 | [4] 0.0781

CCOC(=O)C1(O)Oc2cc(OC)cc(OC)c2C(=O)C1c1ccccc1 (stereo not drawn)
inactive: [5] 0.122 | [6] 0.103 | [7] 0.112 | [8] 0.086

COc1c(O)cc2oc3cc(O)c(CC=C(C)C)c(O)c3c(=O)c2c1CC=C(C)C
inactive: [5] 0.0607 | [6] 0.115 | [7] 0.157 | [8] 0.0751

CC1(C)S[C@@H]2[C@H](NC(=O)Cc3ccccc3)C(=O)N2[C@H]1C(=O)O
inactive: [5] 0.0303 | [6] 0.0624 | [7] 0.183 | [8] 0.145

COC(=O)C[C@H]1C(C)(C)[C@@H](OC(C)=O)[C@@H]2CC3C4CC(=O)O[C@@H](c5ccoc5)[C@]4(C)CCC3[C@@]1(C)C2=O (stereo partly drawn)
inactive: [5] 0.0705 | [6] 0.0161 | [7] 0.14 | [8] 0.112

Cc1cccc(Nc2ccccc2C(=O)O)c1C
inactive: [5] 0.0456 | [6] 0.052 | [7] 0.174 | [8] 0.138

CC(N)C(=O)OC(C)(C)Cc1ccc(Cl)cc1 (stereo not drawn)
inactive: [5] -0.0479 | [6] 0.0707 | [7] 0.168 | [8] 0.0562

CN(CCOc1ccc(C[C@H](Nc2ccccc2C(=O)c2ccccc2)C(=O)O)cc1)c1ccccn1
inactive: [1] 0.159 | [2] 0.0373 | [3] 0.15 | [4] 0.0503

CC[n+]1c(-c2ccccc2)c2cc(N)ccc2c2ccc(N)cc21
active: [7] -1.89
inactive: [5] 0.0617 | [6] 0.0391 | [8] -0.0126

CNCCCN1c2ccccc2CCc2ccccc21
inactive: [5] 0.0473 | [6] 0.0874 | [1] 0.114 | [2] 0.131 | [7] 0.0691 | [8] 0.257 | [3] 0.0822 | [4] 0.0438

COc1c(O)cc(C2Oc3c(c(O)cc(O)c3[C@H]3c4c(O)cc(O)cc4O[C@H](c4ccc(O)cc4)[C@@H]3O)C[C@H]2O)cc1O (stereo partly drawn)
inactive: [9] -0.000188 | [10] 0.0292 | [11] -0.0295 | [12] -0.00938 | [13] 0.0249 | [14] 0.0493 | [15] -0.0107 | [16] 0.0655 | [17] 0.0329 | [18] 0.11 | [19] 0.0402 | [20] 0.209

Cn1c(=O)c2c(ncn2CCO)n(C)c1=O
inactive: [5] 0.164 | [6] 0.117 | [7] 0.193 | [8] 0.0746

CC(C)NCC(O)c1cc(O)cc(O)c1 (stereo not drawn)
inactive: [5] 0.00153 | [6] -0.0256 | [1] 0.11 | [2] 0.085 | [7] 0.146 | [8] 0.121 | [3] 0.186 | [4] 0.0726

CC(=O)/C(C)=N/O
inactive: [1] 0.106 | [2] 0.0636 | [3] 0.144 | [4] 0.0698

CCCn1cnc2c1c(=O)n(CCCCC(C)=O)c(=O)n2C
inactive: [1] 0.233 | [2] -0.0218 | [3] 0.137 | [4] 0.0484

CCCCCCCCCCCCCCSCC(=O)O
inactive: [1] 0.136 | [2] 0.0907 | [3] 0.015 | [4] 0.0283

Fc1ccc(C(c2ccccc2)(c2ccccc2F)n2ccnc2)cc1 (stereo not drawn)
inactive: [5] -0.0531 | [6] -0.0527 | [7] 0.135 | [8] -0.00386

CC(C)(CO)Cc1cc(C(C)(C)C)c(O)c(C(C)(C)C)c1
inactive: [1] 0.202 | [2] 0.0314 | [3] 0.09 | [4] 0.0594

O=C(O)CN(CCN(CC(=O)O)CC(=O)O)CCN(CC(=O)O)CC(=O)O
inactive: [1] 0.195 | [2] 0.0606 | [3] 0.135 | [4] 0.0953

C#CCN(C)CCCOc1ccc(Cl)cc1Cl
inactive: [1] 0.27 | [2] 0.097 | [3] 0.132 | [4] 0.147

O=c1c2ccccc2nc2n1CCc1c-2[nH]c2ccccc12
inactive: [1] 0.189 | [2] 0.103 | [4] 0.0856
0.352: [3]

O=C(/C=C/C=C/c1ccc2c(c1)OCO2)N1CCCCC1
inactive: [5] 0.0376 | [6] 0.0395 | [7] 0.121 | [8] 0.0315

C=C(C)/C=C1/C=CC(=O)C(C)=C1
inactive: [5] 0.0888 | [6] 0.0664 | [7] 0.0231 | [8] 0.158

CCC(=O)OCC(=O)[C@@]1(OC(=O)CC)[C@@H](C)C[C@H]2[C@@H]3CCC4=CC(=O)C=C[C@]4(C)[C@@]3(Cl)[C@@H](O)C[C@@]21C
inactive: [5] 0.0748 | [6] 0.02 | [7] 0.143 | [8] -0.0583

Oc1cc2c(c(Cl)c1O)CCNCC2c1ccccc1 (stereo not drawn)
inactive: [1] 0.218 | [2] 0.0817 | [3] 0.289 | [4] 0.0733

CCCCC/C=C\C[C@H](O)/C=C/c1cccc(C[C@H](O)CCCCO)n1
inactive: [1] 0.123 | [2] 0.0776 | [3] 0.178 | [4] 0.128

COCC(=O)O[C@]1(CCN(C)CCCc2nc3ccccc3[nH]2)CCc2cc(F)ccc2[C@@H]1C(C)C
inactive: [1] 0.169 | [2] 0.137 | [3] 0.0621 | [4] 0.0892

O=C(O)CCCCC1CCSS1 (stereo not drawn)
inactive: [5] 0.0761 | [6] 0.014 | [7] 0.102 | [8] 0.161

O=C(CSc1nnc(Cc2ccccc2)o1)c1ccc(Cl)cc1
inactive: [5] 0.0547 | [6] 0.0748 | [7] 0.133 | [8] -0.101

COc1cc(CN2CCN(Cc3cc(OC)c(OC)cc3OC)CC2)cc(OC)c1
inactive: [5] 0.195 | [6] 0.0735 | [7] 0.0606 | [8] -0.0102

COc1ccccc1N1CCN(CCCNc2cc(=O)n(C)c(=O)n2C)CC1
inactive: [5] 0.085 | [6] 0.152 | [1] 0.261 | [2] 0.134 | [7] 0.116 | [8] 0.121 | [3] 0.166 | [4] 0.1

COc1nc(N)nc2c1ncn2[C@@H]1O[C@H](CO)[C@@H](O)[C@@H]1O
inactive: [9] -0.0331 | [10] 0.0967 | [11] 0.111 | [12] 0.1 | [13] 0.0614 | [14] 0.133 | [15] 0.0686 | [16] 0.0525 | [17] 0.0218 | [18] 0.0206 | [19] 0.0232 | [20] 0.121

O=C(CCCN1CCC(O)(c2cccc(C(F)(F)F)c2)CC1)c1ccc(F)cc1
inactive: [1] 0.129 | [2] 0.074 | [3] 0.0781 | [4] 0.025

CN(C)CCCn1cc(C2=C(c3c[nH]c4ccccc34)C(=O)NC2=O)c2ccccc21
inactive: 0.025 µM, library screen: screen1, EWS-FLI1 expression: high (no doxycycline) 0.176 | 0.025 µM, library screen: screen1, EWS-FLI1 expression: low (doxycycline-induced shRNA knockdown) 0.147 | [5] 0.197 | [6] 0.193 | 25 µM, library screen: screen1, EWS-FLI1 expression: low (doxycycline-induced shRNA knockdown) 0.0609
active: [7] -0.136 | 25 µM, library screen: screen1, EWS-FLI1 expression: high (no doxycycline) -0.422
0.291: [8]

Source: the supplement of paper PMC6089552
